This is an account of results in the supplement of paper PMC10037445.

SMILES strings stand for the structures. Values joined by “and” are separate entries in the source; they are usually repeats but may differ in a detail not shown here. Equal entries are not always repeated. The full ranking holds about 2,900 compounds; the median of “NF-kB SEAP reporter activity, fold change vs agonist alone” is about 0.99, and the highest 2% start at about 2.6. The list shows a part of the results.

Experiment [1] has as its system RAW-Dual. The experiment in a line: NF-kB SEAP reporter activity, fold change vs agonist alone; higher = enhanced NF-kB activity. Conditions: library stock concentration (final ~1000-fold dilution): 10 mM. The essentials: (§1)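 Library stock was pin-tooled at 50 nL into 384-well plates of RAW-Dual macrophages (50,000 cells/well, DMEM), followed 1 h later by a PRR agonist, and the cells were kept at 37 °C, 5% CO2. Supernatant collected after 20 hours was read for IRF by QuantiLuc luminescence and for NF-κB by QuantiBlue absorbance at 620 nm. Reporter activity is fold change over agonist-alone wells, and a well counted as cytotoxic when its IncuCyte confluency was below 70% of agonist controls in both mask sets.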

In experiment [2] the test system is RAW-Dual. The experiment in a line: NF-kB SEAP reporter activity, fold change vs agonist alone; cytotoxicity flag (confluency mask): cytotoxic (confluency <70% of control); higher = enhanced NF-kB activity. The method in brief:
as §1

The test system of experiment [3] is RAW-Dual. The experiment in a line: NF-kB SEAP reporter activity, fold change vs agonist alone; cytotoxicity flag (confluency mask): not cytotoxic; higher = enhanced NF-kB activity. The essentials: as §1
The mark [4] stands for this setting: cytotoxicity flag (confluency mask): cytotoxic (confluency <70% of control), agonist: Imiquimod (TLR7) […].
[5] abbreviates: cytotoxicity flag (confluency mask): cytotoxic (confluency <70% of control), agonist: MPLA (TLR4) […].
Where [6] appears, read: agonist: ODN 1826 (TLR9) 0.5 ug/mL.
Where [7] appears, read: agonist: Pam2CSK4 (TLR2/6) 0.1 ug/mL.
Where [8] appears, read: agonist: Pam3CSK4 (TLR2/1) 0.1 ug/mL.
[9] abbreviates: cytotoxicity flag (confluency mask): not cytotoxic, agonist: Imiquimod (TLR7) […].
Setting [10] is: cytotoxicity flag (confluency mask): not cytotoxic, agonist: MPLA (TLR4) […].

For `CC(C)(C)c1cc(NC(=O)Nc2ccc(Oc3ccnc4[nH]c(=O)cnc34)cc2F)n(-c2ccccc2)n1`, the “NF-kB SEAP reporter activity” value in experiment [1] (setting [4]) came out at 0.131; in experiment [1] (setting [5]), 0.26.
`CC(C)(C)c1cc(NC(=O)Nc2ccc(Oc3ccnc4[nH]c(=O)cnc34)cc2F)n(-c2ccccc2)n1` (library stock concentration (final ~1000-fold dilution): 10 mM): the “NF-kB SEAP reporter activity” value in experiment [2] (agonist: LPS (TLR4) 0.1 ug/mL) was determined as 0.261; in experiment [2] (setting [6]), 0.18; in experiment [2] (setting [7]) it was 0.0633; in experiment [2] (setting [8]), 0.129.
As for `CC(C)(O)CNc1nc(Nc2ccnc(C(F)(F)F)c2)nc(-c2cccc(C(F)(F)F)n2)n1`, the results for the “NF-kB SEAP reporter activity” value in experiment [1] (setting [9]) and in experiment [1] (setting [10]) were 1.19 and 1.28, respectively.
Consider `CC(C)(O)CNc1nc(Nc2ccnc(C(F)(F)F)c2)nc(-c2cccc(C(F)(F)F)n2)n1` (library stock concentration (final ~1000-fold dilution): 10 mM), for which the “NF-kB SEAP reporter activity” value in experiment [3] (agonist: LPS (TLR4) 0.1 ug/mL) amounted to 1.51; in experiment [3] (setting [6]), 1.61; in experiment [3] (setting [7]), 1.09; in experiment [3] (setting [8]), 1.59.
Consider `Cc1cc(Nc2ncc(Cl)c(Nc3ccccc3S(=O)(=O)C(C)C)n2)c(OC(C)C)cc1C1CCNCC1` (library stock concentration (final ~1000-fold dilution): 10 mM), for which the “NF-kB SEAP reporter activity” value in experiment [2] (agonist: LPS (TLR4) 0.1 ug/mL) stood at 0.198; in experiment [2] (setting [6]), 0.674; in experiment [2] (setting [7]), 0.845; in experiment [2] (setting [8]) it was 0.455.
With `Cc1cc(Nc2ncc(Cl)c(Nc3ccccc3S(=O)(=O)C(C)C)n2)c(OC(C)C)cc1C1CCNCC1`, the entries for the “NF-kB SEAP reporter activity” value in experiment [1] (setting [4]) and in experiment [1] (setting [5]) were 2.07 and 0.569, respectively.
On to `COCCCOc1ccnc(C[S+]([O-])c2nc3ccccc3[nH]2)c1C` (stereo not given), for which the “NF-kB SEAP reporter activity” value in experiment [1] (setting [10]) was 0.99.
For the molecule `COCCCOc1ccnc(C[S+]([O-])c2nc3ccccc3[nH]2)c1C` (stereo not given) (library stock concentration (final ~1000-fold dilution): 10 mM), the “NF-kB SEAP reporter activity” value is 1.25 in experiment [3] (agonist: LPS (TLR4) 0.1 ug/mL), 1.14 in experiment [3] (setting [6]), 0.738 in experiment [3] (setting [7]) and 0.853 in experiment [3] (setting [8]).
For `CC(C)=CCC/C(C)=C\CO` (library stock concentration (final ~1000-fold dilution): 10 mM) the same measures were 0.918, 1.1, 1.09 and 1.17.
On to `CC(C)=CCC/C(C)=C\CO`, for which the “NF-kB SEAP reporter activity” value in experiment [1] (setting [9]) worked out at 1.01; in experiment [1] (setting [10]), 1.05.
For `CC(Cc1ccc(O)c(O)c1)C(C)Cc1ccc(O)c(O)c1` (stereo not given) (library stock concentration (final ~1000-fold dilution): 10 mM), the “NF-kB SEAP reporter activity” value in experiment [2] (agonist: LPS (TLR4) 0.1 ug/mL) came to 0.484; in experiment [2] (setting [6]), 0.406; in experiment [2] (setting [7]) it was 0.617; in experiment [2] (setting [8]), 0.262.
For `CC(Cc1ccc(O)c(O)c1)C(C)Cc1ccc(O)c(O)c1` (stereo not given), the “NF-kB SEAP reporter activity” value in experiment [1] (setting [4]) turned out to be 1.15; in experiment [1] (setting [5]), 0.895.
As for `Nc1ncc(-c2ccnc(Nc3ccncc3)n2)c(CC2CC2)n1` (library stock concentration (final ~1000-fold dilution): 10 mM), in experiment [2] (agonist: LPS (TLR4) 0.1 ug/mL), the “NF-kB SEAP reporter activity” value is 4.89.
On to `C=C1CC23CCC4C(C)(C(=O)O)CCCC4(C)C2CCC1C3` (stereo not given) (library stock concentration (final ~1000-fold dilution): 10 mM), for which the “NF-kB SEAP reporter activity” value in experiment [3] (agonist: LPS (TLR4) 0.1 ug/mL) came out at 0.821; in experiment [3] (setting [6]) it was 0.749; in experiment [3] (setting [7]) it was 0.65; in experiment [3] (setting [8]) it was 0.646.
As to `C=C1CC23CCC4C(C)(C(=O)O)CCCC4(C)C2CCC1C3` (stereo not given), the “NF-kB SEAP reporter activity” value in experiment [1] (setting [9]) came to 0.739; in experiment [1] (setting [10]), 0.753.
For `Nc1nc(F)nc2c1ncn2C1OC(COP(=O)(O)O)C(O)C1O` (stereo not given), in that order: 0.903 and 1.03.
On to `Nc1nc(F)nc2c1ncn2C1OC(COP(=O)(O)O)C(O)C1O` (stereo not given) (library stock concentration (final ~1000-fold dilution): 10 mM), for which the “NF-kB SEAP reporter activity” value amounted to 1.14 in experiment [3] (agonist: LPS (TLR4) 0.1 ug/mL), 1.01 in experiment [3] (setting [6]), 1 in experiment [3] (setting [7]) and 1.15 in experiment [3] (setting [8]).
On to `O=C(Nc1ccc2c(O)cc(S(=O)(=O)O)cc2c1)Nc1ccc2c(O)cc(S(=O)(=O)O)cc2c1`, for which the “NF-kB SEAP reporter activity” value in experiment [1] (setting [9]) stood at 0.88.
Turning to `O=C(Nc1ccc2c(O)cc(S(=O)(=O)O)cc2c1)Nc1ccc2c(O)cc(S(=O)(=O)O)cc2c1` (library stock concentration (final ~1000-fold dilution): 10 mM), the “NF-kB SEAP reporter activity” value in experiment [3] (agonist: LPS (TLR4) 0.1 ug/mL) was 1.1 and 1.07; in experiment [3] (setting [6]), 1.24 and 1.16; in experiment [3] (setting [7]), 0.99 and 1.2; in experiment [3] (setting [8]) it was 0.807 and 0.482.
For the molecule `Cn1cnc(N)c2ncnc1-2` (library stock concentration (final ~1000-fold dilution): 10 mM), the “NF-kB SEAP reporter activity” value was found to be 1.02 in experiment [3] (agonist: LPS (TLR4) 0.1 ug/mL), 1.03 in experiment [3] (setting [6]), 0.975 in experiment [3] (setting [7]) and 1.12 in experiment [3] (setting [8]).
Consider `Cn1cnc(N)c2ncnc1-2`, for which the “NF-kB SEAP reporter activity” value stood at 0.984 in experiment [1] (setting [9]) and 1.03 in experiment [1] (setting [10]).
As to `O=C(O)c1cc(O)c(O)c(O)c1` (library stock concentration (final ~1000-fold dilution): 10 mM), the “NF-kB SEAP reporter activity” value in experiment [3] (agonist: LPS (TLR4) 0.1 ug/mL) is 0.717 and 0.491; in experiment [3] (setting [6]) it was 0.74 and 0.383; in experiment [3] (setting [7]) it was 0.873 and 0.77; in experiment [3] (setting [8]), 0.346 and 0.311.
On to `CC1OC(OC2C(O)CC(OC3C(O)CC(OC4CCC5(C)C(CCC6C5CC(O)C5(C)C(C7=CC(=O)OC7)CCC65O)C4)OC3C)OC2C)CC(O)C1O` (stereo not given) (library stock concentration (final ~1000-fold dilution): 10 mM), for which the “NF-kB SEAP reporter activity” value was 1.25 in experiment [3] (agonist: LPS (TLR4) 0.1 ug/mL), 0.941 in experiment [3] (setting [6]), 1.19 in experiment [3] (setting [7]) and 1.2 in experiment [3] (setting [8]).
For the molecule `CC1OC(OC2C(O)CC(OC3C(O)CC(OC4CCC5(C)C(CCC6C5CC(O)C5(C)C(C7=CC(=O)OC7)CCC65O)C4)OC3C)OC2C)CC(O)C1O` (stereo not given), the “NF-kB SEAP reporter activity” value in experiment [1] (setting [9]) is 1.08; in experiment [1] (setting [10]) it was 1.01.
For `COCCc1ccc(OCC(O)CNC(C)C)cc1.COCCc1ccc(OCC(O)CNC(C)C)cc1.O=C(O)C(O)C(O)C(=O)O` (stereo not given), in that order: 0.781 and 0.831.
Consider `COCCc1ccc(OCC(O)CNC(C)C)cc1.COCCc1ccc(OCC(O)CNC(C)C)cc1.O=C(O)C(O)C(O)C(=O)O` (stereo not given) (library stock concentration (final ~1000-fold dilution): 10 mM), for which the “NF-kB SEAP reporter activity” value is 1.01 in experiment [3] (agonist: LPS (TLR4) 0.1 ug/mL), 0.842 in experiment [3] (setting [6]), 1 in experiment [3] (setting [7]) and 1.06 in experiment [3] (setting [8]).
